Reference: paper PMC10229743
Results are given in words; binding and its absence hold for the method and conditions named. In cells and extracts the contact can be indirect. Some entries that bind do so weakly or less than the wild type.

Chains of the proteins cited; added tags and fusions are not shown. Lines headed by an entry give the natural chain unless they say otherwise; changes in a name come on top. A line that says so, or that is headed by a name, gives the form on record, which may keep a tag or linker. Residues count along the entry.
UniProt P19474: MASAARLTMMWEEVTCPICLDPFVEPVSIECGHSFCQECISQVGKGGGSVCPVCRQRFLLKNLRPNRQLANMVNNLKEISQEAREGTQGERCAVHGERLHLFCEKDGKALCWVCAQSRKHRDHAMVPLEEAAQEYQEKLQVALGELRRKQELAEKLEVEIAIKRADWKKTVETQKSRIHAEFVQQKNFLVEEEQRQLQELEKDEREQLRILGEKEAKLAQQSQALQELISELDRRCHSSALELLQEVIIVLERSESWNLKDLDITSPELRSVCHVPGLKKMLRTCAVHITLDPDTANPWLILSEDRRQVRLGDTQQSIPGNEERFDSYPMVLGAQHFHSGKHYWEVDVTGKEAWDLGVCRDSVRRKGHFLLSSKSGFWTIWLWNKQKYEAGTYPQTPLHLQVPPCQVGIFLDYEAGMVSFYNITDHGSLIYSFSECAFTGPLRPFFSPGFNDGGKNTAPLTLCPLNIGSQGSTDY
His-TRIM21 deletion mutant lacking residues 12-55 located in the RING domain (His-RING^Δ) (P19474, form named): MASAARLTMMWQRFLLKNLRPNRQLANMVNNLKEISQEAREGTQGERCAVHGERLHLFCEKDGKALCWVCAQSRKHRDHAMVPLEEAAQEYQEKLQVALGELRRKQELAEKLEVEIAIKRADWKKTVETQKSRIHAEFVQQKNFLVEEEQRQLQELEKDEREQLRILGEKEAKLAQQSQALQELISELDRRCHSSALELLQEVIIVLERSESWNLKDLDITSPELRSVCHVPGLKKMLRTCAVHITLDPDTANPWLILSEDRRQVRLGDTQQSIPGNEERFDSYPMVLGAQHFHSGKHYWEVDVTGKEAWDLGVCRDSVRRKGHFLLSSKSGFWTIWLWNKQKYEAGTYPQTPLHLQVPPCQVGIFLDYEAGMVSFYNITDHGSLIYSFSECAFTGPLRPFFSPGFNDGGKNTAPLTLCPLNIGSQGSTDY
His-TRIM21 deletion mutant lacking residues 286-465 located in the SPRY domain (His-SPRY^Δ) (P19474, form named): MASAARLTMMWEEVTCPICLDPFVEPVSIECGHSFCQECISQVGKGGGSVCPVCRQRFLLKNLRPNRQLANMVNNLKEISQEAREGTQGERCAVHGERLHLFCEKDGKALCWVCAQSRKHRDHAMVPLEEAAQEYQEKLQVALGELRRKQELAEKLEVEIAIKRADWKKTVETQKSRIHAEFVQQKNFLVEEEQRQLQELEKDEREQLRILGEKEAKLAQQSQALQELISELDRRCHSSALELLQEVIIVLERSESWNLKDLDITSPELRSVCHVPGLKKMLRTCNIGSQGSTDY
UniProt P19096: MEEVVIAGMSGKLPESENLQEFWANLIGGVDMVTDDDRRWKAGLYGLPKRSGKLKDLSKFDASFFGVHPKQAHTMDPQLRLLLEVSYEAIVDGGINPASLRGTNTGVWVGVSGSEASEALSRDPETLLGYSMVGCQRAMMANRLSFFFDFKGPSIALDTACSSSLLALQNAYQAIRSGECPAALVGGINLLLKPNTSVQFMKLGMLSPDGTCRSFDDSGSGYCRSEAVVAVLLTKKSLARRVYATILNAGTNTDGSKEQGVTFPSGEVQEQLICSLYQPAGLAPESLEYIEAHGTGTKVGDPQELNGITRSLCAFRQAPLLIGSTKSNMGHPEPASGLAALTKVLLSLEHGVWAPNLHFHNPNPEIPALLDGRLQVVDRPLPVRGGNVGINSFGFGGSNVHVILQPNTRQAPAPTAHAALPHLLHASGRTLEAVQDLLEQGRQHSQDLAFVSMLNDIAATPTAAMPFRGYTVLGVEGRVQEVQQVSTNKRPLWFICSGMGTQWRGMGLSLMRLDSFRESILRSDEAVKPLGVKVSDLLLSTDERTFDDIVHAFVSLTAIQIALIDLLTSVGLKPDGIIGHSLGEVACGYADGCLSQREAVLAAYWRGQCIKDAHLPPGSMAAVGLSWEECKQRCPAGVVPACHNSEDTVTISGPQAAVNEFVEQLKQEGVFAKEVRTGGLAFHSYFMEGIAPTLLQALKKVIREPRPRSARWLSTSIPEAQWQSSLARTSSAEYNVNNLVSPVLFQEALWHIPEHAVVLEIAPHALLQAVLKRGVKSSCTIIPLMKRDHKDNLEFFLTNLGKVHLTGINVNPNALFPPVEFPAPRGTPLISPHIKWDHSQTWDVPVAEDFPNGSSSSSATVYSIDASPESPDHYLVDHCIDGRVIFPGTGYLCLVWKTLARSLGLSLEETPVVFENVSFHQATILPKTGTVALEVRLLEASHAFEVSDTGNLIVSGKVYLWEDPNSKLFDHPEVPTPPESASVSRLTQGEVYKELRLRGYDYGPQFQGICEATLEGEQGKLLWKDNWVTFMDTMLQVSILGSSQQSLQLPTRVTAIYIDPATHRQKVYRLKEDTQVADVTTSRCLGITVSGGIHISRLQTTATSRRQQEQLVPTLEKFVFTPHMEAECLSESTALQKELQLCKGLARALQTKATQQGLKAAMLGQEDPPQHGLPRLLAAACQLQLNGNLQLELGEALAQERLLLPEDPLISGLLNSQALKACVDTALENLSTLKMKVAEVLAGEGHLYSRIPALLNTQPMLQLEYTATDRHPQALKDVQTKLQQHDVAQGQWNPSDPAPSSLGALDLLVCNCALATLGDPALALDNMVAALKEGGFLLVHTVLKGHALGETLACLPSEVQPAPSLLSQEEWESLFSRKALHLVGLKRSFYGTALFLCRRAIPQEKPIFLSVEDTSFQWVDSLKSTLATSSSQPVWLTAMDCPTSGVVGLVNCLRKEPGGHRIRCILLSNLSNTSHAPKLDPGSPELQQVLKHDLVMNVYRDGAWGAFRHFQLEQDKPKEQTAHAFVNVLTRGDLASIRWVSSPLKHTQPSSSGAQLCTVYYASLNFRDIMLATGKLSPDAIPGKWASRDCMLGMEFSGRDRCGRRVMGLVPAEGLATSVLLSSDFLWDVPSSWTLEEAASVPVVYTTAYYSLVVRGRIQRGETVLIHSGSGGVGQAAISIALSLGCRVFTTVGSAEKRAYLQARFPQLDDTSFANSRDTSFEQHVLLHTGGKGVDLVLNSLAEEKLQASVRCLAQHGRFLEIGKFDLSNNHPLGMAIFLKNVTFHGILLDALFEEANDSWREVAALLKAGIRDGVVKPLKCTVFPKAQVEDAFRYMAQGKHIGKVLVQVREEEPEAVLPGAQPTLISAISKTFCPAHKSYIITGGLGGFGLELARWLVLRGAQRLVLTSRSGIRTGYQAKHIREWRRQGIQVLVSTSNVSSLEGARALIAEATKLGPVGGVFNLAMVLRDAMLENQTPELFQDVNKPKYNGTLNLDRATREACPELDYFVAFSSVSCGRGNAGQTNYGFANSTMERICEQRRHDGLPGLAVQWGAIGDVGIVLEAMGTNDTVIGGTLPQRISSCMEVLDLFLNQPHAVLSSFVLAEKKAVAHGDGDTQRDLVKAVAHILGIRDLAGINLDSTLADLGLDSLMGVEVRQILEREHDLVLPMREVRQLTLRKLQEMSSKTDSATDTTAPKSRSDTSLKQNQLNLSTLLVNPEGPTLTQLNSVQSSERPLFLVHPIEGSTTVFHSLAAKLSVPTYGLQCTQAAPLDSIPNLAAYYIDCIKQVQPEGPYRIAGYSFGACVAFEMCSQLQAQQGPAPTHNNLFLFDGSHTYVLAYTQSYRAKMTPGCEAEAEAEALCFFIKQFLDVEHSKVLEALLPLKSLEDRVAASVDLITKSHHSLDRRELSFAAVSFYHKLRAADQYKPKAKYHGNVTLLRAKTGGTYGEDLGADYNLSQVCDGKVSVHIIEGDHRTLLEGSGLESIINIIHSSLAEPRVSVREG

How the values were obtained:
[1] = target: T1, tripartite motif-containing protein 21 (TRIM21), endogenous in mouse primary hepatocytes (mouse (endogenous in primary hepatocytes)) (UniProt Q62191); assay: co-IP; endogenous proteins in mouse primary hepatocyte lysate; IP with anti-TRIM21, anti-PEPCK1 or anti-FASN antibody or control IgG, protein A/G agarose, overnight; immunoblot
T1 sequence: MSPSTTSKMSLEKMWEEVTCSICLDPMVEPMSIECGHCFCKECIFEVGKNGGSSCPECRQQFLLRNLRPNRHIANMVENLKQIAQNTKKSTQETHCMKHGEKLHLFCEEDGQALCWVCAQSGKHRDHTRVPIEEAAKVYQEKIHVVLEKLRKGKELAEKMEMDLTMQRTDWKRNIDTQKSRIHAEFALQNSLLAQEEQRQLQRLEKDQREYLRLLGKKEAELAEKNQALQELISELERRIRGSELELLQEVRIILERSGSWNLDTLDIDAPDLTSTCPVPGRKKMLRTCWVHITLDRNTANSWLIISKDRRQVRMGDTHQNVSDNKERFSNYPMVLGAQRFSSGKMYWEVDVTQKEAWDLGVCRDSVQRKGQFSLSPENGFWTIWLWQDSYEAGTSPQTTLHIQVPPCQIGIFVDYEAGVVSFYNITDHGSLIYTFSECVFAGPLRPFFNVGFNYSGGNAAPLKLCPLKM

[2] = target: His-TRIM21 deletion mutant lacking residues 12-55 located in the RING domain (His-RING^Δ) (UniProt P19474); assay: co-IP; mouse primary hepatocytes transfected with TRIM21 WT, His-RING^Δ or His-SPRY^Δ plasmids for 48 h, MG132 (10 μmol/L) for 4 h before lysis; His-tag immunoprecipitated; blot for FASN, PEPCK1 and His-tag
[3] = target: His-TRIM21 deletion mutant lacking residues 286-465 located in the SPRY domain (His-SPRY^Δ) (UniProt P19474); assay: as above
[4] = target: TRIM21 WT (wild type), plasmid-expressed (UniProt P19474); assay: as above

For “fatty acid synthase (FASN), endogenous in mouse primary hepatocytes (from UniProt P19096 1-2504)”, the binding [1] was “binds”, the binding [2] was “no binding” and the binding [3] was “binds”. For the same substance, the binding [4] was “binds”.
